The list shows a part of the results. Values were computed here from the reads of four pooled replicates and scatter widely.
Target: T1, Pho4 (S. cerevisiae) (UniProt P07270)
T1 sequence: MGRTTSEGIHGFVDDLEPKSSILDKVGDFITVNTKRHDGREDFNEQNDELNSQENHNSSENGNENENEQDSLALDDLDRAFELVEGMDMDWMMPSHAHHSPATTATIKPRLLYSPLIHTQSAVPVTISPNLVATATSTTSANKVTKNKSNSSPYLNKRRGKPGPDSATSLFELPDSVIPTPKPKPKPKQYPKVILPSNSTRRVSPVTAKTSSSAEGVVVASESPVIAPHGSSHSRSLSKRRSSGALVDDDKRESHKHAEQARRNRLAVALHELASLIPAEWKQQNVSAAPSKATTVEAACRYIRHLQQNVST
Experiment: relative binding free energy (BET-seq); higher = weaker binding
Details: reference: library average

Question: For GGATGCACGTGTGCGG, which “relative binding free energy” value is on record?
Answer: 0.05 kcal/mol

Question: TTAAGCACGTGTATTT was tested. Which “relative binding free energy” value did it give?
Answer: -0.02 kcal/mol

Question: How did the “relative binding free energy” value turn out when CGGTTCACGTGGTATC was run?
Answer: 0.35 kcal/mol

Question: Which “relative binding free energy” value does the source give for GTGTGCACGTGGCTTT here?
Answer: -0.12 kcal/mol

Question: How did the “relative binding free energy” value turn out when GTATGCACGTGTTAAA was run?
Answer: -0.01 kcal/mol

Question: TAGGACACGTGTCATG was tested. Which “relative binding free energy” value did it give?
Answer: 0.12 kcal/mol

Question: GTTAACACGTGAAGGT was tested. Which “relative binding free energy” value did it give?
Answer: 0.46 kcal/mol

Question: For ATTCTCACGTGGGTAT, which “relative binding free energy” value is on record?
Answer: 0.09 kcal/mol

Question: Which “relative binding free energy” value does the source give for GGGGCCACGTGGTAAG here?
Answer: -0.12 kcal/mol

Question: With GCTCGCACGTGAGGGT as the sequence, how does the “relative binding free energy” value read?
Answer: 0.24 kcal/mol

Question: TTGGTCACGTGGGCCT was tested. Which “relative binding free energy” value did it give?
Answer: 0.07 kcal/mol

Question: Which “relative binding free energy” value does the source give for TCGTTCACGTGTAGTA here?
Answer: 0.22 kcal/mol

Question: How did the “relative binding free energy” value turn out when TAAGGCACGTGTTACT was run?
Answer: -0.1 kcal/mol

Question: For TCGGTCACGTGGGCAG, which “relative binding free energy” value is on record?
Answer: -0.05 kcal/mol

Question: Which “relative binding free energy” value does the source give for GGTATCACGTGGTGAG here?
Answer: 0.07 kcal/mol

Question: GAGTGCACGTGGAGTC was tested. Which “relative binding free energy” value did it give?
Answer: -0.12 kcal/mol

Question: For TGCTTCACGTGTACGG, which “relative binding free energy” value is on record?
Answer: 0.13 kcal/mol

Question: Which “relative binding free energy” value does the source give for AGGGTCACGTGAAAGT here?
Answer: 0.22 kcal/mol

Question: How did the “relative binding free energy” value turn out when TGCTTCACGTGAATTT was run?
Answer: 0.31 kcal/mol

Question: With GGATACACGTGACGGG as the sequence, how does the “relative binding free energy” value read?
Answer: 0.47 kcal/mol

Question: How did the “relative binding free energy” value turn out when GAATACACGTGGGGGG was run?
Answer: 0.02 kcal/mol

Question: Which “relative binding free energy” value does the source give for TTATCCACGTGTGAGT here?
Answer: 0.06 kcal/mol

Question: How did the “relative binding free energy” value turn out when ATAATCACGTGGCTGG was run?
Answer: 0.03 kcal/mol

Question: With AGCTTCACGTGCGAGG as the sequence, how does the “relative binding free energy” value read?
Answer: 0.21 kcal/mol

Question: Which “relative binding free energy” value does the source give for ATGTTCACGTGGTTAC here?
Answer: 0.23 kcal/mol

Question: For ATATTCACGTGTCAGG, which “relative binding free energy” value is on record?
Answer: 0.29 kcal/mol

Question: How did the “relative binding free energy” value turn out when TTAGTCACGTGTATGC was run?
Answer: 0.06 kcal/mol

Question: Which “relative binding free energy” value does the source give for GTGATCACGTGGTAAA here?
Answer: 0.19 kcal/mol

Question: Which “relative binding free energy” value does the source give for AGTAACACGTGGCGAG here?
Answer: 0 kcal/mol

Question: With TTGTTCACGTGGGAGA as the sequence, how does the “relative binding free energy” value read?
Answer: 0.3 kcal/mol

Question: With ATTACCACGTGGGGTT as the sequence, how does the “relative binding free energy” value read?
Answer: -0.21 kcal/mol

Question: How did the “relative binding free energy” value turn out when ACTTGCACGTGTTTGG was run?
Answer: 0 kcal/mol

Question: For AGTTGCACGTGTTGCG, which “relative binding free energy” value is on record?
Answer: 0.08 kcal/mol

Question: How did the “relative binding free energy” value turn out when ATTAGCACGTGCAGGG was run?
Answer: -0.22 kcal/mol

Question: For CATAGCACGTGGGTAG, which “relative binding free energy” value is on record?
Answer: -0.17 kcal/mol

Question: TGAGGCACGTGCTAGT was tested. Which “relative binding free energy” value did it give?
Answer: -0.22 kcal/mol

Question: GTATGCACGTGGGGGA was tested. Which “relative binding free energy” value did it give?
Answer: -0.16 kcal/mol

Question: With TAGGCCACGTGGGTTT as the sequence, how does the “relative binding free energy” value read?
Answer: -0.13 kcal/mol

Question: With TAAATCACGTGATGAT as the sequence, how does the “relative binding free energy” value read?
Answer: 0.26 kcal/mol

Question: GGGTACACGTGGGGCT was tested. Which “relative binding free energy” value did it give?
Answer: -0.04 kcal/mol

Question: CACGTCACGTGATGGG was tested. Which “relative binding free energy” value did it give?
Answer: 0.22 kcal/mol

Question: Which “relative binding free energy” value does the source give for AGTTGCACGTGATTCG here?
Answer: 0.15 kcal/mol

Question: With TGGTACACGTGATAGA as the sequence, how does the “relative binding free energy” value read?
Answer: 0.2 kcal/mol

Question: Which “relative binding free energy” value does the source give for TAAGGCACGTGTCGAG here?
Answer: -0.05 kcal/mol

Question: Which “relative binding free energy” value does the source give for CGTAACACGTGGGCGG here?
Answer: -0.27 kcal/mol

Question: Which “relative binding free energy” value does the source give for TCGTTCACGTGTGCTG here?
Answer: 0.19 kcal/mol

Question: For GGTTGCACGTGTGCAG, which “relative binding free energy” value is on record?
Answer: -0.08 kcal/mol

Question: How did the “relative binding free energy” value turn out when AAGTGCACGTGTTCTT was run?
Answer: 0.07 kcal/mol

Question: With TTTTGCACGTGAGTAG as the sequence, how does the “relative binding free energy” value read?
Answer: 0.1 kcal/mol

Question: Which “relative binding free energy” value does the source give for TATAACACGTGGATGT here?
Answer: -0.15 kcal/mol

Question: For CAAATCACGTGGGGTG, which “relative binding free energy” value is on record?
Answer: 0.05 kcal/mol

Question: GTAAGCACGTGAGGCA was tested. Which “relative binding free energy” value did it give?
Answer: 0.29 kcal/mol

Question: How did the “relative binding free energy” value turn out when TGGTGCACGTGAGAGC was run?
Answer: 0.2 kcal/mol

Question: For ATGGGCACGTGTGTGC, which “relative binding free energy” value is on record?
Answer: -0.13 kcal/mol

Question: TTAATCACGTGATCGT was tested. Which “relative binding free energy” value did it give?
Answer: 0.23 kcal/mol

Question: Which “relative binding free energy” value does the source give for GAGGACACGTGGGGCT here?
Answer: 0 kcal/mol

Question: How did the “relative binding free energy” value turn out when GTATCCACGTGTTGGA was run?
Answer: 0.06 kcal/mol

Question: How did the “relative binding free energy” value turn out when GTGTTCACGTGGGTGA was run?
Answer: 0.13 kcal/mol

Question: How did the “relative binding free energy” value turn out when TCATGCACGTGTTGTG was run?
Answer: -0.02 kcal/mol

Question: How did the “relative binding free energy” value turn out when TTTATCACGTGATGTA was run?
Answer: 0.29 kcal/mol

Question: For TGATGCACGTGGAGGA, which “relative binding free energy” value is on record?
Answer: 0.07 kcal/mol

Question: Which “relative binding free energy” value does the source give for GTTATCACGTGTGCAT here?
Answer: 0.26 kcal/mol

Question: How did the “relative binding free energy” value turn out when AAGGACACGTGAGTAG was run?
Answer: 0.22 kcal/mol

Question: Which “relative binding free energy” value does the source give for GGATCCACGTGGTCGG here?
Answer: 0.01 kcal/mol

Question: For TTGAACACGTGTGGAA, which “relative binding free energy” value is on record?
Answer: 0.19 kcal/mol

Question: With AGGATCACGTGTTTTG as the sequence, how does the “relative binding free energy” value read?
Answer: 0.19 kcal/mol

Question: With TCATCCACGTGGGGGT as the sequence, how does the “relative binding free energy” value read?
Answer: -0.11 kcal/mol

Question: For AAGGTCACGTGCAATG, which “relative binding free energy” value is on record?
Answer: 0.17 kcal/mol

Question: Which “relative binding free energy” value does the source give for TGGTTCACGTGGGAGT here?
Answer: 0.17 kcal/mol

Question: Which “relative binding free energy” value does the source give for GGTGACACGTGAATGT here?
Answer: 0.35 kcal/mol

Question: GTATTCACGTGCCGTT was tested. Which “relative binding free energy” value did it give?
Answer: 0.31 kcal/mol

Question: How did the “relative binding free energy” value turn out when GTAGTCACGTGCAGAT was run?
Answer: 0.18 kcal/mol

Question: How did the “relative binding free energy” value turn out when CGATCCACGTGGGGGG was run?
Answer: -0.19 kcal/mol

Question: For CCGGGCACGTGGTTGA, which “relative binding free energy” value is on record?
Answer: -0.03 kcal/mol

Question: TTGTACACGTGATTTA was tested. Which “relative binding free energy” value did it give?
Answer: 0.34 kcal/mol

Question: For GTGGACACGTGATGGA, which “relative binding free energy” value is on record?
Answer: 0.16 kcal/mol

Question: How did the “relative binding free energy” value turn out when TGGTGCACGTGGGCGC was run?
Answer: -0.16 kcal/mol

Question: TTTGGCACGTGATAAC was tested. Which “relative binding free energy” value did it give?
Answer: 0.02 kcal/mol

Question: GGTATCACGTGCATGG was tested. Which “relative binding free energy” value did it give?
Answer: 0.16 kcal/mol

Question: Which “relative binding free energy” value does the source give for CGAGGCACGTGTAAGT here?
Answer: 0.04 kcal/mol

Question: How did the “relative binding free energy” value turn out when TAAGGCACGTGCGTGA was run?
Answer: -0.16 kcal/mol

Question: How did the “relative binding free energy” value turn out when AGTAGCACGTGTAGTG was run?
Answer: -0.09 kcal/mol

Question: Which “relative binding free energy” value does the source give for TGTTTCACGTGCCGGG here?
Answer: 0.31 kcal/mol

Question: For AACGGCACGTGGCGGG, which “relative binding free energy” value is on record?
Answer: -0.2 kcal/mol

Question: For ATTGTCACGTGAGTGG, which “relative binding free energy” value is on record?
Answer: 0.23 kcal/mol

Question: GCGGCCACGTGGGGGA was tested. Which “relative binding free energy” value did it give?
Answer: -0.2 kcal/mol

Question: CGAGGCACGTGAGGAG was tested. Which “relative binding free energy” value did it give?
Answer: 0.28 kcal/mol

Question: For CTAGGCACGTGCTGGG, which “relative binding free energy” value is on record?
Answer: -0.29 kcal/mol

Question: TTTGTCACGTGGGAAA was tested. Which “relative binding free energy” value did it give?
Answer: 0.07 kcal/mol

Question: How did the “relative binding free energy” value turn out when ATAGACACGTGTCTTG was run?
Answer: 0.09 kcal/mol

Question: With CGCGGCACGTGATGGT as the sequence, how does the “relative binding free energy” value read?
Answer: -0.04 kcal/mol

Question: How did the “relative binding free energy” value turn out when AAAGTCACGTGTAGTG was run?
Answer: 0.18 kcal/mol

Question: AGTTACACGTGAGGCT was tested. Which “relative binding free energy” value did it give?
Answer: 0.32 kcal/mol

Question: For CTTCGCACGTGTTTTG, which “relative binding free energy” value is on record?
Answer: -0.03 kcal/mol

Question: Which “relative binding free energy” value does the source give for GTTTCCACGTGGCTGG here?
Answer: 0.12 kcal/mol

Question: TGTTACACGTGGTTAA was tested. Which “relative binding free energy” value did it give?
Answer: 0.1 kcal/mol

Question: How did the “relative binding free energy” value turn out when TTAATCACGTGTTTGT was run?
Answer: 0.13 kcal/mol

Question: How did the “relative binding free energy” value turn out when TGGTACACGTGCTGGA was run?
Answer: 0.05 kcal/mol

Question: Which “relative binding free energy” value does the source give for GGGAGCACGTGGAATG here?
Answer: -0.05 kcal/mol

Question: With AAGATCACGTGGTTTA as the sequence, how does the “relative binding free energy” value read?
Answer: 0.07 kcal/mol

Question: For GTAGTCACGTGATGTT, which “relative binding free energy” value is on record?
Answer: 0.31 kcal/mol

Question: How did the “relative binding free energy” value turn out when GTGGCCACGTGATGGG was run?
Answer: 0.14 kcal/mol

Question: TTCGACACGTGTGTTA was tested. Which “relative binding free energy” value did it give?
Answer: -0.03 kcal/mol

Question: How did the “relative binding free energy” value turn out when CTTATCACGTGTTTAG was run?
Answer: 0.2 kcal/mol

Question: For CAGGGCACGTGGAGAG, which “relative binding free energy” value is on record?
Answer: -0.13 kcal/mol

Question: Which “relative binding free energy” value does the source give for TTTTACACGTGGGGTA here?
Answer: -0.03 kcal/mol

Question: For TTAGTCACGTGGGCTA, which “relative binding free energy” value is on record?
Answer: -0.02 kcal/mol

Question: Which “relative binding free energy” value does the source give for TGGTTCACGTGTGGTC here?
Answer: 0.3 kcal/mol

Question: For GAATTCACGTGTTTTG, which “relative binding free energy” value is on record?
Answer: 0.27 kcal/mol

Question: For TCGTACACGTGGATTT, which “relative binding free energy” value is on record?
Answer: 0.16 kcal/mol

Question: GGGATCACGTGGGGGC was tested. Which “relative binding free energy” value did it give?
Answer: 0.1 kcal/mol

Question: With GGATTCACGTGCAGGA as the sequence, how does the “relative binding free energy” value read?
Answer: 0.3 kcal/mol

Question: For TGCTGCACGTGCGGAG, which “relative binding free energy” value is on record?
Answer: -0.05 kcal/mol

Question: TGGTTCACGTGCGGTG was tested. Which “relative binding free energy” value did it give?
Answer: 0.3 kcal/mol

Question: With GCGATCACGTGTTGTG as the sequence, how does the “relative binding free energy” value read?
Answer: 0.16 kcal/mol
